# Measurements taken from the supplement of paper PMC7125110.
# This sample is rich in variants without activity.
# B1: glmS ribozyme (parent)
# chain: AUAAAAGCGCCAGAACUACAGAAAUGUAGUUGACGAGGAGGAGGUUUAUCGAAUUUUCGGCGGAUGCCUCCAAA
# Experiments:
# Conditions in all cases: with glucosamine-6-phosphate
# glucosamine-6-phosphate [1] = variants of: B1; experiment: self-cleavage kobs at 640 uM GlcN6P; higher = faster cleavage; RNA array
# Method in brief: (§1)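 Weighted Michaelis–Menten fits across concentrations supplied kcat and KM, based on kobs from one- or two-exponential decay fits to normalised per-tile medians. The data came from barcoded ribozyme variants transcribed in situ by E. coli RNA polymerase on sequenced MiSeq chips and tracked at 37 °C by a hybridised Cy3 probe. Glucosamine-6-phosphate (40 μM to 10 mM) in HEPES/KCl/Mg(OAc)2 buffer was flowed in.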
# glucosamine-6-phosphate [2] = variants of: B1; experiment: self-cleavage kobs at 10000 uM GlcN6P; higher = faster cleavage; RNA array
# Method in brief: as §1
# glucosamine-6-phosphate [3] = variants of: B1; experiment: self-cleavage kobs at 160 uM GlcN6P; higher = faster cleavage; RNA array
# Method in brief: as §1
# glucosamine-6-phosphate [4] = variants of: B1; experiment: self-cleavage kobs at 2500 uM GlcN6P; higher = faster cleavage; RNA array
# Method in brief: as §1
Variant,self-cleavage kobs at 640 uM GlcN6P (glucosamine-6-phosphate [1]),self-cleavage kobs at 10000 uM GlcN6P (glucosamine-6-phosphate [2]),self-cleavage kobs at 160 uM GlcN6P (glucosamine-6-phosphate [3]),self-cleavage kobs at 2500 uM GlcN6P (glucosamine-6-phosphate [4])
AUAAAAGUGCCAGAACUACAGAAAUGUAGUUGACGAGGAGGCGGUUUAUCGAAUUUUCGGCGGAGGCCUCCAAA [C8U A42C U65G],< 1e-05 s⁻¹,< 1e-05 s⁻¹,–,–
AUAAAAGUGCCAGAACUACAGAAAUGUAGUUGAGGAGGAGAAGGUUUAUCGAAUUUUCGGCGGAUGCCUCCAAA [C8U C34G G41A],< 1e-05 s⁻¹,–,< 1e-05 s⁻¹,–
AUAAAAGUUCCAGAACUACAGAAAUGUAGUUGACGAGGAGGUGGUUUAUCGAAUUUUCGGCGGAUGCCUCCAAA [C8U G9U A42U],< 1e-05 s⁻¹,–,–,< 1e-05 s⁻¹
AUAAAAGCACCGGAACUACAGAAAUGUAGUUGAGGAGGUGCAGGUUUAUCGAAUUUUCGGCGGAUGCCUCCAAA [G9A A12G C34G A39U G41C],< 1e-05 s⁻¹,–,–,–
AUAAAAGUGCCAGAACUACAGAAAUGUAGUUCACGAGGAUGAGGUUUAUCGCAUUUUCGGCGGAUGCUUCCAAA [C8U G32C G40U A52C C68U],< 1e-05 s⁻¹,–,–,< 1e-05 s⁻¹
AUAAAAGUGCCAGAACUACAGAAAUGUAGUUGACGAGGAGGAGGUUUAUCGAAUUUUCGUCGGAUGCUUCCAAA [C8U G60U C68U],< 1e-05 s⁻¹,< 1e-05 s⁻¹,< 1e-05 s⁻¹,< 1e-05 s⁻¹
AUAAAAGUGCCAGAACUACAGAAAUGUAGUUGACGAGGAGGUGGUUUAUCGAAUUUUCGGCGGCUGCCCCCAAA [C8U A42U A64C U69C],< 1e-05 s⁻¹,–,< 1e-05 s⁻¹,–
AUAAAAGUGCCAGAACUACAGAAAUGUAGUUGACGAGGAGGAGGUUUAUCGAGAUUUCGGCGGAUGCCUCCAAA [C8U A53G U54A],< 1e-05 s⁻¹,–,–,–
AUAAAAGUGCCAGUACUACAGAAAUGUAGUUCACGAGGAGGAGGUUUAUCGAAUUUUCGGCGGAUGCCUCCAAA [C8U A14U G32C],< 1e-05 s⁻¹,–,–,< 1e-05 s⁻¹
AUAAAAGCACCAGAACUACAGAAAUGUAGUUGACGAGGAGGAGGCUUAUCGAUUUUUCGCCGGAUGCCUCCAAA [G9A U45C A53U G60C],< 1e-05 s⁻¹,–,–,–
AUAAAAGCACCAGAACUACAGAAAUGUAGUUUACGAGGAGGAGGUUUCUUGAACUUUCGGCGGAUGCCUCCAAA [G9A G32U A48C C50U U54C],< 1e-05 s⁻¹,–,–,< 1e-05 s⁻¹
AUAAAAGCACCAGAACUACAGAAAUGUAGUUGACGAGGAGGAGGUUUAUCGAAUUUUCGACGGAUGCGUCCAAA [G9A G60A C68G],< 1e-05 s⁻¹,–,–,–
AUAAAAGUGCCAGAACUACAGAAAUGUAGUUGACGAGGAGGAGGAUUAUGGAAUUUUCGGCGGAUGCCUCCAAA [C8U U45A C50G],< 1e-05 s⁻¹,–,–,< 1e-05 s⁻¹
AUAAAAGUCCCAGAAGUACAGAAAUGUAGUUGACGAGGAGGAGGUUUAUCGAAUUUUCGACGGAUGCCUCCAAA [C8U G9C C16G G60A],< 1e-05 s⁻¹,–,–,–
AUAAAAGUGCCAUAACUACAGAAAUGUAGUUGACGAGGAGGAGGUUUAUCGAAUUUUAGGCGGAUGCCUCCAAA [C8U G13U C58A],< 1e-05 s⁻¹,–,–,< 1e-05 s⁻¹
AUAAAAGCACCAGAACUACAGAAAUGUAGUUGACGAGGUGGAGGUUUAUCGAAUUUUCGGCGGAUGCCUCCAAA [G9A A39U],< 1e-05 s⁻¹,–,< 1e-05 s⁻¹,–
AUAAAAGUGCCAGAACUACAGAAAUGUAGUUGACGAGGAGGAGGUUUAUCGAAUUUUCGGCGGUUGUCUCCAAA [C8U A64U C67U],< 1e-05 s⁻¹,< 1e-05 s⁻¹,–,< 1e-05 s⁻¹
AUAAAAGUGCCAGAACUACAGAAAUGUAGUGGACGAGGAGGAGGUUUAUCCAAUUUUUGGCGGAUCCCUCCAAA [C8U U31G G51C C58U G66C],< 1e-05 s⁻¹,–,–,< 1e-05 s⁻¹
AUAAAAGCCCCAGACCUACAGAAAUGUAGUUUACGAGGACGAGGUUUAUCGAAUUUUCGGCGGAUCCCUCCAAA [G9C A15C G32U G40C G66C],< 1e-05 s⁻¹,–,–,–
AUAAAAGCAGCAGAACUACAGAAAUGUAGUUGACGAGGAGGAGAUUUAUCGAAUUUUCGGCGGAUGCCUUCAAA [G9A C10G G44A C70U],< 1e-05 s⁻¹,–,–,< 1e-05 s⁻¹
